The IC50 comes from the fitted curve, where viability falls to half of the control; a fit beyond the top or the lowest dose is shown as a bound at that dose. The AUC spans the tested range (256-fold, ending at the top dose) of the same fit; the more sensitive the line, the further below 1. For part of these data: Where the top dose is marked as inferred, it was derived from the fitted curves, not read from the paper. For part of these data: An entry number marks a drug with two screens in the source, which often give different values.
Legend:
Experiment in all cases: Viability of human cancer cell lines after 72 h of drug (GDSC screen)
AR-42 = compound: CC(C)[C@H](C(=O)Nc1ccc(C(=O)NO)cc1)c1ccccc1 [AR-42]; conditions: top dose 5.12 µM; top dose inferred
Method: (§1)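 Human cancer cell lines in 384-well plates, medium with 10% serum, drug for 72 h over a 256-fold dose range (nine 2-fold or five 4-fold steps up to the top dose). Adherent lines were fixed and stained with the nucleic acid dye Syto60, suspension lines read with resazurin; signal relative to control wells, capped at 0 and 100%. One two-parameter sigmoid per drug and line, fitted in a mixed model over all curves with the slope shared within a line.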

GDC0941 = compound: CS(=O)(=O)N1CCN(Cc2cc3nc(-c4cccc5[nH]ncc45)nc(N4CCOCC4)c3s2)CC1 [GDC0941]; conditions: top dose 4 µM; screen: GDSC drug entry 1527; top dose inferred
Method: as §1

CEP-701 = compound: C[C@]12O[C@H](C[C@]1(O)CO)n1c3ccccc3c3c4c(c5c6ccccc6n2c5c31)CNC4=O [CEP-701]; conditions: top dose 2 µM; top dose inferred
Method: as §1

Pazopanib = compound: Cc1ccc(Nc2nccc(N(C)c3ccc4c(C)n(C)nc4c3)n2)cc1S(N)(=O)=O [Pazopanib]; conditions: top dose 8 µM
Method: as §1

SB 216763 = compound: Cn1cc(C2=C(c3ccc(Cl)cc3Cl)C(=O)NC2=O)c2ccccc21 [SB 216763]; conditions: top dose 10 µM; top dose inferred
Method: as §1

| Cell Line | AUC (AR-42) | IC50 (AR-42) [µM] | AUC (GDC0941) | IC50 (GDC0941) [µM] | AUC (CEP-701) | IC50 (CEP-701) [µM] | AUC (Pazopanib) | IC50 (Pazopanib) [µM] | AUC (SB 216763) | IC50 (SB 216763) [µM] |
| --- | --- | --- | --- | --- | --- | --- | --- | --- | --- | --- |
| ME-180 (cervix, adherent) | 0.617 | 0.684 | 0.648 | 0.654 | 0.685 | 0.423 | 0.97 | > 8 | – | – |
| OAW-42 (ovary, adherent) | 0.711 | 1.33 | 0.517 | 0.279 | 0.664 | 0.372 | 0.971 | > 8 | – | – |
| JHU-011 (head and neck, adherent) | 0.553 | 0.444 | 0.866 | 3.48 | 0.395 | 0.0646 | 0.842 | 5.48 | – | – |
| T-T (oesophagus, adherent) | 0.783 | 2.14 | 0.841 | 2.75 | 0.548 | 0.169 | 0.892 | > 8 | – | – |
| LN-18 (glioma, adherent) | 0.769 | 1.58 | 0.968 | > 4 | 0.726 | 0.47 | 0.972 | > 8 | – | – |
| Hep 3B2_1-7 (liver, adherent) | 0.586 | 0.55 | 0.735 | 1.17 | 0.511 | 0.134 | 0.618 | 1.06 | – | – |
| Saos-2 (osteosarcoma, adherent) | 0.975 | > 5.12 | 0.716 | 1.35 | – | – | 0.866 | > 8 | 0.974 | > 10 |
| OVCAR-8 (ovary, adherent) | 0.314 | 0.103 | 0.87 | 3.07 | – | – | 0.965 | > 8 | 0.952 | > 10 |
| HT55 (large intestine, adherent) | 0.671 | 0.953 | 0.926 | > 4 | 0.895 | > 2 | 0.797 | 3.77 | – | – |
| NCI-H1944 (lung adenocarcinoma, adherent) | 0.474 | 0.271 | 0.651 | 0.677 | 0.587 | 0.22 | 0.842 | 6.2 | – | – |
| A549 (lung adenocarcinoma, adherent) | – | – | – | – | 0.393 | 0.061 | – | – | 0.94 | > 10 |
| JHU-022 (head and neck, adherent) | 0.786 | 2.87 | 0.719 | 1.25 | 0.63 | 0.315 | 0.982 | > 8 | – | – |
| H3118 (head and neck, adherent) | 0.408 | 0.175 | 0.341 | 0.0868 | 0.687 | 0.439 | 0.981 | > 8 | – | – |
| BT-549 (breast, adherent) | – | – | – | – | 0.607 | 0.277 | – | – | 0.979 | > 10 |
| NCI-H2444 (non-small cell lung carcinoma, adherent) | 0.646 | 0.859 | 0.936 | > 4 | 0.888 | > 2 | 0.988 | > 8 | – | – |
| CAL-78 (chondrosarcoma, adherent) | 0.9 | > 5.12 | 0.895 | > 4 | 0.83 | 1.52 | 0.777 | 3.7 | – | – |
| MDA-MB-436 (breast, adherent) | 0.81 | 3.6 | 0.844 | > 4 | 0.799 | 1.26 | 0.965 | > 8 | – | – |
| BICR22 (head and neck, adherent) | 0.671 | 1.04 | 0.643 | 0.661 | 0.724 | 0.6 | 0.972 | > 8 | – | – |
| SW756 (cervix, adherent) | 0.875 | > 5.12 | 0.912 | > 4 | 0.744 | 0.727 | 0.91 | > 8 | – | – |
| H513 (mesothelioma, semi-adherent) | 0.974 | > 5.12 | 0.963 | > 4 | 0.985 | > 2 | 0.919 | > 8 | – | – |
| CL-40 (large intestine, adherent) | – | – | – | – | 0.772 | 1.39 | – | – | 0.967 | > 10 |
| OE21 (oesophagus, adherent) | 0.717 | 1.69 | 0.654 | 0.785 | 0.578 | 0.221 | 0.938 | > 8 | – | – |
| NCI-H841 (small cell lung carcinoma, adherent) | 0.717 | 1.32 | 0.935 | > 4 | 0.663 | 0.356 | 0.947 | > 8 | – | – |
| H2369 (mesothelioma, adherent) | 0.708 | 1.27 | 0.879 | > 4 | 0.576 | 0.203 | 0.563 | 0.746 | – | – |
| CCF-STTG1 (glioma, adherent) | 0.988 | > 5.12 | 0.855 | 3.22 | 0.839 | 1.38 | 0.517 | 0.555 | – | – |
| IA-LM (large cell lung carcinoma, adherent) | 0.829 | 3.73 | 0.783 | 1.9 | 0.867 | > 2 | 0.858 | 7.87 | – | – |
| PCI-30 (head and neck, adherent) | 0.922 | > 5.12 | 0.858 | > 4 | 0.828 | 1.63 | 0.978 | > 8 | – | – |
| DMS-53 (small cell lung carcinoma, adherent) | 0.908 | > 5.12 | 0.976 | > 4 | 0.934 | > 2 | 0.915 | > 8 | – | – |
| MES-SA (uterus, adherent) | 0.914 | > 5.12 | 0.65 | 0.607 | 0.816 | 0.906 | 0.932 | > 8 | – | – |
| COLO-783 (melanoma, adherent) | 0.631 | 0.726 | 0.953 | > 4 | 0.867 | 1.69 | 0.991 | > 8 | – | – |

Source: the supplement of paper PMC4967469
